The other results are listed elsewhere or left out.
B1: chr9:78326885:78326886:-_ENSMUSG00000037742_ENSMUST00000042235|mus_hu|FALSE|FALSE (ssRNA)
RNA: GGGAGUUCUACAGUCCGACGAUCCAGCUUUUUACCAGAACGGCGAUCAAUCUUUUCCUUCAGCUCAGCAAACUUGCAUGCAAUGUGAGCCGUGUGGCAAUCCAAUACAGGGGCAUAGCCGGCGCUUAUUUGGCCUGGAUGGUUCAACAGAGGAUUGAGCAUCA
B2: 27733538_27733658_2797_3pUTR_ENSG00000158195_ENST00000430629|human|control|control (ssRNA)
RNA: GGGAGUUCUACAGUCCGACGAUCAAGAAUGACAAGAGAGGCUAUGAAGGUCUGAGCAGCACCGACAGGGCUGGCACAGACCCUGAGCCUUCCUACUGGGACCCCAACCUAUGGUGAGGUCUGGAGUAGCAAUACAACUGAGAACAACAGAGGAUUGAGCAUCA
B3: chr5:71494580:71494581:+_ENSG00000131711_ENST00000296755|hu_mus|FALSE|FALSE (ssRNA)
RNA: GGGAGUUCUACAGUCCGACGAUCAGAGGAGGCUUGGUGAGCUGCUGCAGUCUCUUUAGCUGCAGAGGUAGAAUCUGAAAAGCCAGGUGAAUAUAAAGGUGAGGACUCUCGUGGGGUGAGUGGAGAAAUAUCAGAUUUCGGAGACAACAGAGGAUUGAGCAUCA
B4: 40065941_40068717_428_CDS_ENSG00000131473_ENST00000352035|human|control|control (ssRNA)
RNA: GGGAGUUCUACAGUCCGACGAUCGAACUCCUCAGCCUGACUGUGGGGGACGAAGGGCUCGAUCAGAAAGUUCUUGAGGAAGCCUGUGGCCUUGCCAACUGUGGCUUCCUGUCCCAGCCGUGGCUUCAGCCAGGACUUGACCCCCAACAGAGGAUUGAGCAUCA
B5: chr5:141096593:141096594:-_ENSMUSG00000036565_ENSMUST00000042661|mus_hu|FALSE|FALSE (ssRNA)
RNA: GGGAGUUCUACAGUCCGACGAUCUUUUUAAAAUUUAUUUUAAAACAUGAAACCCAAGCUGAAUAGAAACCACAGAAAUUACAUUGACGAGAUUUUUAGUAUUUGCCAAGAAAAAAAGCCCCCAAAGAAAUAAAAAUCAGCCCCCAACAGAGGAUUGAGCAUCA
B6: chr5:33459820:33459821:+_ENSG00000113407_ENST00000502553|hu_mus|motif|central (ssRNA)
RNA: GGGAGUUCUACAGUCCGACGAUCCCAGAGCCGGCUAUUGAAGAUGUUGGGAGUGACGACCUCCUGGAACCCUCUUUUCCGGUAUUCACUCCUGAUAAAUUCCAUUAGUGUAUUAUAAAUGUAGGCUCCUUUGGGCAGGAAAAACAACAGAGGAUUGAGCAUCA
B7: chr7:102939105:102939106:+_ENSG00000105819_ENST00000453466|hu_hu|FALSE|FALSE (ssRNA)
RNA: GGGAGUUCUACAGUCCGACGAUCUCCAACUGUGCAUGUUGAGAGCCCAGAGUCUUCCGAAGCUACUCUGAGUCCACUUUCUAAACAUGUUACUCUUGUUUCAGGAACAUUCAGAACAACUUGGGUAGCAGCCUGUGUACUUCUCAACAGAGGAUUGAGCAUCA
B8: chr16:94651144:94651145:+_ENSMUSG00000040785_ENSMUST00000117648|mus_hu|mus_mus_mus_hu_True|8_98 (ssRNA)
RNA: GGGAGUUCUACAGUCCGACGAUCAUUUUCUUGAAUCAAGUGACCGAUAACAUAGUCCACUGCUUCAUUUAGAAAAUUUCUGCUAGAAAAACAGGUUGUAUAGUCUUCUGUGCUCAAAACUUUCCAAGAGAGCAGCUCUUUGAGCAACAGAGGAUUGAGCAUCA
B9: chr10:34671499:34671500:-_ENSG00000148498_ENST00000340077|hu_mus|FALSE|FALSE (ssRNA)
RNA: GGGAGUUCUACAGUCCGACGAUCGAUGCUGAAUCCCAGUCCUUCUGUACCUUUCUUAAGCUGGAUGUUGAGCCUCUUGCCUACUUUCUUCGUGUUGUACACACUGCCUACGUUGGUACUAAGCACACUGGGUGGAGCCAAGGCCAACAGAGGAUUGAGCAUCA
B10: chr2:5814250:5814251:-_ENSMUSG00000025816_ENSMUST00000102981|mus_hu|mus_mus_mus_hu_True|18_78 (ssRNA)
RNA: GGGAGUUCUACAGUCCGACGAUCUUCCUUUCCGGUUUCUGAAUUUCUGGUAGAACUGCACAGAAAGGUUUGAUAACUUCUAAAAAUUUGAUGCCCAUGGCUGCUGCUGGGGAGGCCCGGCGGGCACCCGCGGCCUCGGCGCUGCAACAGAGGAUUGAGCAUCA
B11: chr4:95690885:95690886:+_ENSMUSG00000028572_ENSMUST00000156910|mus_mus|mus_mus_mus_hu_False|1_38 (ssRNA)
RNA: GGGAGUUCUACAGUCCGACGAUCUUUAGAAAAUGUUAAAUACCAUGCUAAAAUAUUUUCAAAGGCUUAUUUUAUUUUACCAGAAGUCACAGGCAAGCAGACACCAUAAGAAUAUAUGAAAAUGAAACUCAACAAUAAAAUGUACAACAGAGGAUUGAGCAUCA
B12: chr14:57575763:57575764:+_ENSMUSG00000021945_ENSMUST00000022511|mus_hu|motif|central (ssRNA)
RNA: GGGAGUUCUACAGUCCGACGAUCCACUGUUUUCAGGCCAAAAUACUUAGUGUUAAAGUAGAACAGUGUAUUCAGAAGAGCGGCUGGAGAGUGUGAUCCUAGUUGUUUUAUCCUCCAGAGAUAGUCUUCUUCAACUCGAGAGAACAACAGAGGAUUGAGCAUCA
B13: chr20:60963365:60963366:+_ENSG00000171858_ENST00000343986|hu_hu|motif|central (ssRNA)
RNA: GGGAGUUCUACAGUCCGACGAUCCGCACGGUAAAGUCCACGAUGUCCCGAAGUGAUGAGCAAAGCCCAGGGAAACACUCACCAUCCGGCGAAUGGCCCCGCAGAUAGCAUAAGUUUUAAACUGGCCAUUAAACCUGCCUGUGACAACAGAGGAUUGAGCAUCA
B14: 118619289_118619409_1883_CDS_ENSG00000135090_ENST00000392533|human|control|control (ssRNA)
RNA: GGGAGUUCUACAGUCCGACGAUCAGCCUUCAGCUUGUUCUCCAGGGCGAUCAGCUGCUUCUGGUGCUGGCGCCGCAUCCGCUUAUAACCUGACAUCUGUUCCCGCAACUCGUUCUCCUGCUCAUGCUCAUGGAUCUGUCGUGUCAACAGAGGAUUGAGCAUCA
B15: 15618368_15629092_1094_CDS_ENSG00000151779_ENST00000281513|human|control|control (ssRNA)
RNA: GGGAGUUCUACAGUCCGACGAUCCUCAGUAGAGAGCCUCCAAUCAGGAUUAAGGUCAUCAUAGCCUGGCUGCUCAUUUUGACCCCAUUCCCCUUGUUGCUUCAGAGAUGGAAUCGCCCAGAUGCUCAGUUUCCCUGAGAAGUGCAACAGAGGAUUGAGCAUCA
B16: chr12:16048344:16048345:+_ENSG00000023734_ENST00000419869|hu_hu|hu_hu_hu_mus_True|38_78 (ssRNA)
RNA: GGGAGUUCUACAGUCCGACGAUCAGAUCGUCCAUAAGUAAUAACCAAAAUCUCUCCCUCAGGAAUAUACUCCAUGCUGCUAACAGACAUAUUAAAAUUUAGAGAUUUCACUUCUGUCAUUGUGGCAUGAUCCCAGAGCCGAACCAACAGAGGAUUGAGCAUCA
B17: 130452956_130454814_1383_CDS_ENSG00000196455_ENST00000356763|human|control|control (ssRNA)
RNA: GGGAGUUCUACAGUCCGACGAUCGUGAAUCAUCUGAGUUACCAAUUCUCUGAUACUGUGAUCUUCAAUUUUAUUUAGCACUUGUUCAGGGAAAAAAUGUCCAUUUCUAUAAGCCAAAAGUUGAGAGAGAUCAAAUAAUGGUACCAACAGAGGAUUGAGCAUCA
B18: chr9:136227202:136227203:+_ENSG00000148291_ENST00000371964|hu_hu|FALSE|FALSE (ssRNA)
RNA: GGGAGUUCUACAGUCCGACGAUCCUCAUCAGUGGCCUUCUCUCUUGGGGGCUUUGCCUUCUCAUCCUCUUUGUCUGUCAAAAAGUCAUCAGUGCCAUCCCCAUCCUCCGUGCUUCCAAGGUCCUUUCUGGUGAAUAGCUCAGGCAACAGAGGAUUGAGCAUCA
B19: chr16:92112057:92112058:+_ENSMUSG00000039680_ENSMUST00000047429|mus_mus|FALSE|FALSE (ssRNA)
RNA: GGGAGUUCUACAGUCCGACGAUCGCCGUCACACUCUUUUACUUCCUGGGUCAGAGGGUGUUUCACAAUAUUUGGUCUAACCACGUCAAUGUCUCGCGCCAAGUGUUCCAGUAUGUUCUCCACAGCACUUGUCGGAGCAUAAAACAACAGAGGAUUGAGCAUCA
B20: chr2:76468371:76468372:-_ENSMUSG00000002731_ENSMUST00000002808|mus_mus|FALSE|FALSE (ssRNA)
RNA: GGGAGUUCUACAGUCCGACGAUCUACCAGGAGACAUUUAAAUCUGGAAAGUUGACGGAAUCUGAAGAGAUUUGGAAAGGACACACAGACAUACAUUACAGUAAACAUUUUGCUUGGAAAGAAGGGCGAGGGAAACUUCUUUGCCAACAGAGGAUUGAGCAUCA
B21: 118282969_118287507_3832_CDS_ENSMUSG00000005102_ENSMUST00000005233|mouse|control|control (ssRNA)
RNA: GGGAGUUCUACAGUCCGACGAUCUUGCAAAUCCCCCUUCUGCUCAAUGAACUUGUAGAGUCUACACAGGCUAUUAGAAGACAAGGACAGGUUACAGAAUUUAGCUUCCACUUCUCUCCUAGUCAGCUUCUCUGUCACAGCAUCCAACAGAGGAUUGAGCAUCA
B22: chr16:94664741:94664742:+_ENSMUSG00000040785_ENSMUST00000117648|mus_hu|mus_mus_mus_hu_False|8_18 (ssRNA)
RNA: GGGAGUUCUACAGUCCGACGAUCUGGUACUGAUCUUGGUAGCUGAUAUUCAGGAGAAAGGCUGGCCAAGGGUGUAUAUAUGCUGGUGUACUGGGGCAAACCUGGUAACACGUUUAUGUACGCUGGUCGCUGGGUGAUGAUAUCCAACAGAGGAUUGAGCAUCA

molecular target: T1, UNK ZnF1-3 (human, UniProt Q9C0B0 31-174); assay: nsRBNS (natural sequence RNA bind-n-seq); RBNS binding buffer (assumed for nsRBNS): 25 mM Tris pH 7.5, 150 mM KCl, 3 mM MgCl2, 0.01% Triton X-100, 500 ug/ml BSA, 20 U/ml SUPERase-In, 4 C; UNK is unkempt and MSI1 is Musashi-1; names of the RNAs are library labels; protein concentration not given here; high values mean tight binding
T1 sequence: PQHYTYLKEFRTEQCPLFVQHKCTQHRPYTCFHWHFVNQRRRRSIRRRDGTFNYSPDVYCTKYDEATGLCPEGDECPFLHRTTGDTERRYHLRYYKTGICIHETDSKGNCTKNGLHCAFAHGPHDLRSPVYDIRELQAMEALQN

| Binder | binding signal [enrichment R] |
| --- | --- |
| B1 | 0.781 |
| B2 | 0.383 |
| B3 | 2.2 |
| B4 | 0.297 |
| B5 | 2.7 |
| B6 | 1.27 |
| B7 | 0.572 |
| B8 | 0.707 |
| B9 | 0.675 |
| B10 | 1.06 |
| B11 | 3.08 |
| B12 | 1.41 |
| B13 | 1.18 |
| B14 | 0.736 |
| B15 | 1.34 |
| B16 | 1.44 |
| B17 | 0.937 |
| B18 | 0.768 |
| B19 | 0.651 |
| B20 | 1.65 |
| B21 | 1.19 |
| B22 | 0.819 |

Reference: PMC12136788
